# The list shows a part of the results.
# Test system: T1, C. trachomatis L2/434/Bu expressing GFP (CTL2-GFP)
# T1 construct: L2/434/Bu GFP intracellular growth in HeLa cells
# Parameters: species or system HeLa; C. trachomatis total inclusion area by high-content imaging, normalised to DMSO
# Settings: total inclusion area; 28.5 h, 10 µM; inhibitor
# Procedure, shortened: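 Host cell viability was gauged from Hoechst-stained nuclei counts, while chlamydial growth was taken from total inclusion area and inclusion number per well. Cells were fixed and imaged by high-content microscopy once bulk GFP and resorufin fluorescence had been measured.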
row,Structure (SMILES),% of control remaining
1,Cc1ncccc1-c1csc(C2CCCO2)n1 (stereo not shown) [CBK304121],100.716
2,COc1ncccc1C(=O)N1CCc2ccccc21 [CBK200402],72.2704
3,Cc1ccc2c(C)c(C(=O)Nc3ccc(S(N)(=O)=O)cc3)oc2c1 [CBK267661],108.165
4,O=C(O)CC(Cc1ccccc1)C(=O)Nc1ccc(F)cc1 (stereo not shown) [CBK286841],83.3941
5,N#Cc1ccc(-c2cccs2)nc1SCC(=O)Nc1ccc([N+](=O)[O-])cc1 [CBK066850],87.9106
6,CC(=O)N1CCC[C@H]2NC(=O)CNC(=O)C3(C/C=C/C[C@H]21)CCN(C(=O)c1ccon1)CC3 [CBK292057],78.3864
7,Cc1ccc(C2CCCN2C(=O)c2ccc(=O)n(CC(=O)NC3CCCCC3)c2)cc1C (stereo not shown) [CBK285982],110.817
8,c1csc(CNc2nccnc2-c2ccoc2)c1 [CBK036599],170.05
9,COc1ccc(OC)c(NS(=O)(=O)c2ccc(C(=O)O)cc2)c1 [CBK267603],93.4675
10,CCN1CC2(CCC1=O)CCN(c1ccnc(OC)c1C#N)CC2 [CBK307018],76.6221
11,Nc1ncc(-c2cc(C(F)(F)F)cc(C(F)(F)F)c2)nc1N1CCC[C@@H]1CO [CBK063501],88.8036
12,CC1=CC[C@H]2COC(CN3CCOC3C(C)C)[C@@H]1C2 (stereo partly shown) [CBK019189],102.473
13,CCOC(=O)c1sc(NC(=O)C2CCCCC2)nc1C [CBK057893],38.3549
14,COc1ccc(-c2cc(Nc3ccccc3)ncn2)cc1 [CBK090911],98.7172
15,CC(C)(C)C1=CC2=NC3(CCCCCCCCCCC3)[C@@H]3C[C@@H](O)[C@@H](O)[C@@H]3N2O1 [CBK303254],89.1102
16,COc1ccc(C(C)C)cc1-c1cncc(N2CCCCC2CCO)n1 (stereo not shown) [CBK037897],81.5066
17,Cc1cc(COc2nc3ccccc3nc2NCCCCO)no1 [CBK173985],89.1447
18,CC1CCCN(CC(C)NC(=O)Cn2cnc3ccc(F)cc3c2=O)C1 (stereo not shown) [CBK305953],72.9908
19,COC(=O)c1cccn2cc(CN3CCOCC3(C)C)nc12 [CBK304879],32.6449
20,O=C(N/N=C\c1cccs1)c1n[nH]c2c1CCCC2 [CBK261667],109.251
21,O=C(c1c[nH]c2ccccc12)N1CCc2ccccc2C1 [CBK200331],94.5145

row,Structure (SMILES),% of control remaining
1,Cc1nc(COC(=O)c2ccc(C#N)c(C)n2)cs1 [CBK297775],75.2049
2,O=C(c1cccnc1)N1CCN(C2CC(=O)N(c3ccc(F)cc3)C2=O)CC1 (stereo not shown) [CBK270049],93.724
3,O=C(C(c1ccccc1)c1ccccc1)N1CCC2(CCNC2)C1 (stereo not shown) [CBK156729C],110.78
4,COc1ccc(C)cc1NC(=O)c1cnc2sc(C)cn2c1=O [CBK287714],114.517
5,CC(=O)c1nnnn1C(C)(C)Cc1ccccc1 [CBK022088],70.3611
6,Cc1ccc(NS(=O)(=O)c2c(Br)sc3ccnc(N4CCN(C)CC4)c23)cc1 [CBK034654C],73.1487
7,CN(CC(=O)Nc1nnc[nH]1)S(=O)(=O)c1ccc(Br)cc1 [CBK268618],112.395
8,CCn1c(C)cc2cc(NC(=O)c3cnc(C)nc3C)ccc21 [CBK283260],80.7304
9,CSc1ccc(-c2nc(C)c(C(C)=O)n2O)cc1 [CBK288356],114.517
10,CC1(C)CC(=O)c2sc(NC(=O)c3ccc4ncccc4c3)nc2C1 [CBK144105],99.8219
11,CN(Cc1ccc(-c2ccc(S(C)(=O)=O)cc2)nc1)C1CCN(C(=O)c2ccc(Cl)c(Cl)c2)CC1 [CBK164101T],74.6799
12,COC(=O)CCn1c(-c2ccncc2)cc2cccnc21 [CBK282592],54.8427
13,O=C(c1ccco1)N1CCN(c2cncc(-c3cccc4cccnc34)n2)CC1 [CBK037339],81.5634
14,CCOc1ccc(-c2ccnc(NCCNC(C)=O)n2)cc1C(=O)O [CBK306898],85.8255
15,O=C(Nc1ccccc1F)C1CCCN1c1nc(O)cc(C(F)(F)F)n1 (stereo not shown) [CBK004307],90.9804
16,CS(=O)(=O)N1CC2(CCN(Cc3cccc(C(F)(F)F)c3)CC2)c2ccccc21 [CBK126670],95.9609
17,O=C(NCCCNC(=O)c1ccc(Cl)cc1Cl)c1ccncc1 [CBK269372],67.5739
18,Cc1nc(CC(=O)Nc2ccc(N3CCOCC3)cc2)cs1 [CBK304339],44.8191
19,CNC(=O)c1nc(NC)oc1C [CBK059214],88.5503
20,O=C1CC(c2ccccc2)CC(=O)C1=CNCc1ccccn1 (stereo not shown) [CBK262521],33.6244
21,COc1ccc(Cl)cc1S(=O)(=O)N1CCC(C(=O)NCCCO)CC1 [CBK269835],74.5558

row,Structure (SMILES),% of control remaining
1,O=C(O)[C@@H]1CCCN1c1nc(O)cc(C(F)(F)F)n1 [CBK002865],96.5132
2,CCS(=O)(=O)c1nc2ccccc2n1CC(=O)Nc1ccccc1C(=O)OC [CBK267877],88.3055
3,O=C(Nc1ccc(Cl)nc1)C(F)(F)F [CBK091339],67.7071
4,Cc1cc2occ(CC(=O)NCC(C)n3cncn3)c2cc1C (stereo not shown) [CBK282614],102.297
5,Cc1cc(C(=O)N2CCN(Cc3ccco3)C[C@@H]2C(C)C)c(C)[nH]1 [CBK284254],100.798
6,O=C(CSc1ccccn1)Nc1ccc(C(=O)O)cc1 [CBK286605],43.5216
7,Cc1ccc(N(C(=O)COc2ccc(C(C)(C)C)cc2)C2C=CS(=O)(=O)C2)cc1 (stereo not shown) [CBK265811],115.148
8,Cc1cc(O)cc(C2CCCN(C(=O)CC3CCCC3)C2)n1 (stereo not shown) [CBK283422],94.2643
9,COC(=O)c1ccc(C(=O)OC)c(NC(=O)C2CCCCC2C(=O)O)c1 (stereo not shown) [CBK265422],109.783
10,Cc1ccc(NC(=O)COC(=O)CCc2c[nH]c(=O)[nH]2)cc1 [CBK265562],86.2887
11,CC(C)(C)C(=O)N1CCc2cc(C(O)CN3CCCC3)ccc21 (stereo not shown) [CBK282923],108.063
12,COc1cc(CC(=O)N2CCc3c(sc4ncnc(N)c34)C2)ccc1C [CBK306013],53.8934
13,COCCc1nc(CN(C)C)n(Cc2ccccc2C)n1 [CBK307014],62.8415
14,Cc1ccc(N(CC(O)CN2CCCC2)S(=O)(=O)c2ccccc2)cc1 (stereo not shown) [CBK264739],90.1062
15,CCCC(=O)N1CCC(Cc2ccc(-c3cccc(C)c3)cc2)(C(=O)NC(C)C)CC1 [CBK285760],118.946
16,CC(=O)OC(C(=O)O)C(OC(C)=O)c1nc2ccccc2s1 (stereo not shown) [CBK264076],89.4156
17,O=C(O)CCn1c(CO)nc2ccccc21 [CBK111473],75.6654
18,O=C(Nc1nc2ccccc2s1)NC1CC1 [CBK007542],78.9011
19,C[N+]1(CC(=O)c2ccccc2)C2CCC1CC(OC(=O)C(O)c1ccccc1)C2 (stereo not shown) [CBK022712C],82.5977
20,CCCC(=O)Nc1cccnc1N1CCNCC1 [CBK004732T],98.4693
21,CC(C)COC(=O)N1CCC(C(=O)NC(c2ccc(Cl)cc2)c2cnccn2)CC1 (stereo not shown) [CBK059668],107.49

row,Structure (SMILES),% of control remaining
1,O=C(c1ccc(F)cc1)N1CCC[C@@H]1Cn1c(=O)oc2ccccc21 [CBK284529],87.6935
2,O=S(=O)(c1ccc(Cl)s1)N1CCN(c2ccccc2Cl)CC1 [CBK045098],111.417
3,COc1ccc(NC(=O)CSc2nc(C)c(Cc3ccc(O)cc3)[nH]2)cc1 [CBK291171],97.8654
4,Cc1cccc(-c2ncc(NC(=O)CCc3cccnc3)nc2-c2ccc(N)cc2)c1 [CBK036684],121.555
5,O=C(NCCCNc1c(Cl)cccc1[N+](=O)[O-])c1ccc(F)cc1 [CBK264943],94.4248
6,CC(CNC(=O)C(C)Oc1ccccc1)CN(C)C (stereo not shown) [CBK268658],122.268
7,O=C(Cn1nnc(-c2ccccc2)n1)Nc1cccc([N+](=O)[O-])c1 [CBK263057],101.939
8,O=C(O)/C=C/c1cccc(-c2cnc(N3CCOCC3)c3nccn23)c1 [CBK091263],92.884
9,CC(=O)c1ccccc1OCCOCCN1CCCC(C)C1 (stereo not shown) [CBK269625C],63.5102
10,CNC(=S)N/C(=N/c1ccccc1)c1ccccc1 [CBK261037],69.8393
11,CN(C)C(=O)c1ccc(-c2ncc(OCCN3CCOCC3)nc2N)cc1 [CBK145183],96.0796
12,COc1ncc(-c2cncc(Nc3cccc(C#N)c3)n2)c(OC)n1 [CBK066022],117.033
13,O=C(c1cc(F)c(F)cc1F)N1CCC2(CCN(Cc3cccc(C(F)(F)F)c3)C2)C1 (stereo not shown) [CBK132130],81.2726
14,COc1cc(CNC(=O)N2CCN(CCc3ccccc3)CC2)cc(OC)c1OC [CBK158910],85.8222
15,COc1ccc(CCNC(=O)c2cc(-c3ccc(C)o3)nc3ccccc23)cc1OC [CBK265486],81.6336
16,Nc1cc2cccnc2nc1-c1cccc2cccnc12 [CBK067609],84.3844
17,O=C1C2C3C=CC(C3)C2C(=O)N1CCN1CCNCC1 (stereo not shown) [CBK278185C],113.137
18,CCC(=O)Nc1ccc(-c2csc(N3CCSCC3)n2)cc1 [CBK306469],81.7127
19,S=C(NCc1ccccc1)Nc1ccccc1 [CBK091617],45.6424
